# In the supplement of paper PMC8728848:
# The list shows a part of the results.
# Experiments:
# Experiment in all cases: glycan array binding signal (z-score within array); higher = stronger binding
# Settings in all cases: glycan notation: IUPAC condensed, linker removed
# [1] = molecular target: Gal(b1-3)GlcNAc(b1-6)GalNAc
# Summary of the method: (§1)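 The binding signal is a Z-score computed within each array and averaged over linkers. Arrays of the same protein sequence at different concentrations or buffers were also averaged together. Data originate from 3228 arrays in the Consortium for Functional Glycomics database, kept only where the protein sequence was available.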
# [2] = molecular target: Gal(b1-3)GlcNAc(b1-6)[Gal(b1-3)]GalNAc
# Summary of the method: as §1
# Gal(b1-3)GlcNAc6S = molecular target: Gal(b1-3)GlcNAc6S
# Summary of the method: as §1
# [3] = molecular target: Gal(b1-3)[Fuc(a1-4)]GlcNAc
# Summary of the method: as §1
# [4] = molecular target: Gal(b1-3)[Fuc(a1-4)]GlcNAc(b1-2)Man
# Summary of the method: as §1
# [5] = molecular target: Gal(b1-3)[Fuc(a1-4)]GlcNAc(b1-2)Man(a1-3)[Gal(b1-3)[Fuc(a1-4)]GlcNAc(b1-2)Man(a1-6)]Man(b1-4)GlcNAc(b1-4)[Fuc(a1-6)]GlcNAc
# Summary of the method: as §1
# [6] = molecular target: Gal(b1-3)[Fuc(a1-4)]GlcNAc(b1-3)Gal(b1-3)[Fuc(a1-4)]GlcNAc
# Summary of the method: as §1
# [7] = molecular target: Gal(b1-3)[Fuc(a1-4)]GlcNAc(b1-3)Gal(b1-4)[Fuc(a1-3)]GlcNAc
# Summary of the method: as §1
# [8] = molecular target: Gal(b1-3)[Fuc(a1-4)]GlcNAc(b1-6)GalNAc
# Summary of the method: as §1
# [9] = molecular target: Gal(b1-3)[GlcNAc(b1-6)]GalNAc
# Summary of the method: as §1
# [10] = molecular target: Gal(b1-3)[Neu5Ac(a2-6)]GalNAc
# Summary of the method: as §1
# [11] = molecular target: Gal(b1-3)[Neu5Ac(a2-6)]GlcNAc(b1-4)Gal(b1-4)Glc
# Summary of the method: as §1
# [12] = molecular target: Gal(b1-3)[Neu5Ac(b2-6)]GalNAc
# Summary of the method: as §1
# Gal(b1-4)Gal = molecular target: Gal(b1-4)Gal
# Summary of the method: as §1
# [13] = molecular target: Gal(b1-4)GalNAc(a1-3)[Fuc(a1-2)]Gal(b1-4)GlcNAc
# Summary of the method: as §1
# [14] = molecular target: Gal(b1-4)GalNAc(b1-3)[Fuc(a1-2)]Gal(b1-4)GlcNAc
# Summary of the method: as §1
# Gal(b1-4)Glc = molecular target: Gal(b1-4)Glc
# Summary of the method: as §1
# Gal(b1-4)Glc6S = molecular target: Gal(b1-4)Glc6S
# Summary of the method: as §1
# Gal(b1-4)GlcNAc = molecular target: Gal(b1-4)GlcNAc
# Summary of the method: as §1
# [15] = molecular target: Gal(b1-4)GlcNAc(a1-6)Gal(b1-4)GlcNAc
# Summary of the method: as §1
# Gal(b1-4)GlcNAc(b1-2)Man = molecular target: Gal(b1-4)GlcNAc(b1-2)Man
# Summary of the method: as §1
# [16] = molecular target: Gal(b1-4)GlcNAc(b1-2)Man(a1-3)Man(b1-4)GlcNAc(b1-4)GlcNAc
# Summary of the method: as §1
# [17] = molecular target: Gal(b1-4)GlcNAc(b1-2)Man(a1-3)[Gal(b1-4)GlcNAc(b1-2)Man(a1-6)]Man(b1-4)GlcNAc(b1-4)GlcNAc
# Summary of the method: as §1
# [18] = molecular target: Gal(b1-4)GlcNAc(b1-2)Man(a1-3)[Gal(b1-4)GlcNAc(b1-2)Man(a1-6)]Man(b1-4)GlcNAc(b1-4)[Fuc(a1-6)]GlcNAc
# Summary of the method: as §1
# [19] = molecular target: Gal(b1-4)GlcNAc(b1-2)Man(a1-3)[Gal(b1-4)GlcNAc(b1-2)Man(a1-6)][Gal(b1-4)GlcNAc(b1-4)]Man(b1-4)GlcNAc(b1-4)[Fuc(a1-6)]GlcNAc
# Summary of the method: as §1
# [20] = molecular target: Gal(b1-4)GlcNAc(b1-2)Man(a1-3)[Gal(b1-4)GlcNAc(b1-2)Man(a1-6)][GlcNAc(b1-4)]Man(b1-4)GlcNAc(b1-4)[Fuc(a1-6)]GlcNAc
# Summary of the method: as §1
# [21] = molecular target: Gal(b1-4)GlcNAc(b1-2)Man(a1-3)[GlcNAc(b1-2)Man(a1-6)]Man(b1-4)GlcNAc(b1-4)GlcNAc
# Summary of the method: as §1
# [22] = molecular target: Gal(b1-4)GlcNAc(b1-2)Man(a1-3)[GlcNAc(b1-4)][Gal(b1-4)GlcNAc(b1-2)Man(a1-6)]Man(b1-4)GlcNAc(b1-4)GlcNAc
# Summary of the method: as §1
# [23] = molecular target: Gal(b1-4)GlcNAc(b1-2)Man(a1-3)[Man(a1-6)]Man(b1-4)GlcNAc(b1-4)GlcNAc
# Summary of the method: as §1
# [24] = molecular target: Gal(b1-4)GlcNAc(b1-2)Man(a1-6)Man(b1-4)GlcNAc(b1-4)GlcNAc
# Summary of the method: as §1
# [25] = molecular target: Gal(b1-4)GlcNAc(b1-2)Man(a1-6)[GlcNAc(b1-2)Man(a1-3)]Man(b1-4)GlcNAc(b1-4)GlcNAc
# Summary of the method: as §1
# [26] = molecular target: Gal(b1-4)GlcNAc(b1-2)Man(a1-6)[Man(a1-3)]Man(b1-4)GlcNAc(b1-4)GlcNAc
# Summary of the method: as §1
# [27] = molecular target: Gal(b1-4)GlcNAc(b1-2)[Gal(b1-4)GlcNAc(b1-4)]Man(a1-3)[Gal(b1-4)GlcNAc(b1-2)Man(a1-6)]Man(b1-4)GlcNAc(b1-4)GlcNAc
# Summary of the method: as §1
# [28] = molecular target: Gal(b1-4)GlcNAc(b1-2)[Gal(b1-4)GlcNAc(b1-4)]Man(a1-3)[Gal(b1-4)GlcNAc(b1-2)[Gal(b1-4)GlcNAc(b1-6)]Man(a1-6)]Man(b1-4)GlcNAc(b1-4)GlcNAc
# Summary of the method: as §1
# [29] = molecular target: Gal(b1-4)GlcNAc(b1-2)[Gal(b1-4)GlcNAc(b1-4)]Man(a1-3)[GlcNAc(b1-4)][Gal(b1-4)GlcNAc(b1-2)Man(a1-6)]Man(b1-4)GlcNAc(b1-4)GlcNAc
# Summary of the method: as §1
# [30] = molecular target: Gal(b1-4)GlcNAc(b1-2)[Gal(b1-4)GlcNAc(b1-4)]Man(a1-3)[GlcNAc(b1-4)][Gal(b1-4)GlcNAc(b1-2)[Gal(b1-4)GlcNAc(b1-6)]Man(a1-6)]Man(b1-4)GlcNAc(b1-4)GlcNAc
# Summary of the method: as §1
# [31] = molecular target: Gal(b1-4)GlcNAc(b1-2)[Gal(b1-4)GlcNAc(b1-6)]Man(a1-6)[Gal(b1-4)GlcNAc(b1-2)Man(a1-3)]Man(b1-4)GlcNAc(b1-4)GlcNAc
# Summary of the method: as §1
# [32] = molecular target: Gal(b1-4)GlcNAc(b1-2)[Gal(b1-4)GlcNAc(b1-6)]Man(a1-6)[Gal(b1-4)GlcNAc(b1-2)Man(a1-3)]Man(b1-4)GlcNAc(b1-4)[Fuc(a1-6)]GlcNAc
# Summary of the method: as §1
# [33] = molecular target: Gal(b1-4)GlcNAc(b1-2)[Gal(b1-4)GlcNAc(b1-6)]Man(a1-6)[GlcNAc(b1-4)][Gal(b1-4)GlcNAc(b1-2)Man(a1-3)]Man(b1-4)GlcNAc(b1-4)GlcNAc
# Summary of the method: as §1
# [34] = molecular target: Gal(b1-4)GlcNAc(b1-2)[Gal(b1-4)GlcNAc(b1-6)]Man(a1-6)[GlcNAc(b1-4)][Gal(b1-4)GlcNAc(b1-2)[Gal(b1-4)GlcNAc(b1-4)]Man(a1-3)]Man(b1-4)GlcNAc(b1-4)[Fuc(a1-6)]GlcNAc
# Summary of the method: as §1
# [35] = molecular target: Gal(b1-4)GlcNAc(b1-3)Gal(b1-3)GalNAc
# Summary of the method: as §1
# [36] = molecular target: Gal(b1-4)GlcNAc(b1-3)Gal(b1-3)GlcNAc
# Summary of the method: as §1
# [37] = molecular target: Gal(b1-4)GlcNAc(b1-3)Gal(b1-4)Glc
# Summary of the method: as §1
# [38] = molecular target: Gal(b1-4)GlcNAc(b1-3)Gal(b1-4)GlcNAc
# Summary of the method: as §1
# [39] = molecular target: Gal(b1-4)GlcNAc(b1-3)Gal(b1-4)GlcNAc(b1-2)Man(a1-3)[Gal(b1-4)GlcNAc(b1-3)Gal(b1-4)GlcNAc(b1-2)Man(a1-6)]Man(b1-4)GlcNAc(b1-4)GlcNAc
# Summary of the method: as §1
binder,measurement,setting,value
"CFEM-PPm (Pichia pastoris), F2QPV1 (protein) AVATPPACLLACAAEVVKESSDCDALNNIQCICENEGSAIHACLESTCPDGLSSTALQSFEDVCE",glycan array binding signal (z-score),[1],-0.239
same,glycan array binding signal (z-score),[2],1.12
same,glycan array binding signal (z-score),Gal(b1-3)GlcNAc6S,0.044
same,glycan array binding signal (z-score),[3],-0.12
same,glycan array binding signal (z-score),[4],0.224
same,glycan array binding signal (z-score),[5],-0.167
same,glycan array binding signal (z-score),[6],-0.034
same,glycan array binding signal (z-score),[7],-0.17
same,glycan array binding signal (z-score),[8],0.172
same,glycan array binding signal (z-score),[9],1.5
same,glycan array binding signal (z-score),[10],7.18
same,glycan array binding signal (z-score),[11],-0.3
same,glycan array binding signal (z-score),[12],0.453
same,glycan array binding signal (z-score),Gal(b1-4)Gal,-0.433
same,glycan array binding signal (z-score),[13],-0.175
same,glycan array binding signal (z-score),[14],-0.141
same,glycan array binding signal (z-score),Gal(b1-4)Glc,-0.356
same,glycan array binding signal (z-score),Gal(b1-4)Glc6S,0.117
same,glycan array binding signal (z-score),Gal(b1-4)GlcNAc,-0.105
same,glycan array binding signal (z-score),[15],0.757
same,glycan array binding signal (z-score),Gal(b1-4)GlcNAc(b1-2)Man,-0.158
same,glycan array binding signal (z-score),[16],-0.373
same,glycan array binding signal (z-score),[17],-0.368
same,glycan array binding signal (z-score),[18],-0.288
same,glycan array binding signal (z-score),[19],-0.285
same,glycan array binding signal (z-score),[20],-0.329
same,glycan array binding signal (z-score),[21],-0.391
same,glycan array binding signal (z-score),[22],-0.509
same,glycan array binding signal (z-score),[23],0.03
same,glycan array binding signal (z-score),[24],-0.272
same,glycan array binding signal (z-score),[25],-0.21
same,glycan array binding signal (z-score),[26],-0.432
same,glycan array binding signal (z-score),[27],0.196
same,glycan array binding signal (z-score),[28],-0.194
same,glycan array binding signal (z-score),[29],-0.449
same,glycan array binding signal (z-score),[30],-0.315
same,glycan array binding signal (z-score),[31],-0.21
same,glycan array binding signal (z-score),[32],-0.078
same,glycan array binding signal (z-score),[33],-0.387
same,glycan array binding signal (z-score),[34],-0.174
same,glycan array binding signal (z-score),[35],-0.305
same,glycan array binding signal (z-score),[36],-0.298
same,glycan array binding signal (z-score),[37],-0.204
same,glycan array binding signal (z-score),[38],-0.037
same,glycan array binding signal (z-score),[39],1.53
